# Data from publication PMC11995724, “Antibiotic target discovery by integrated phenotypic and activity-based profiling of electrophilic fragments” (Cell chemical biology, 2025).
# The campaign covered roughly 3,200 compounds. About 75 (2%) showed an effect of 50% or more. Some of the results follow.
# Test system: T1, S. aureus MSSA476
# T1 construct: MSSA476
# Parameters: species or system S. aureus MSSA476 (TSB) or V. cholerae SAD30 (LB); 384-well bacterial growth screen at 25 uM, OD600 relative to DMSO control
# Details: relative growth, OD600, TSB; 25 µM; inhibitor
row,SMILES,% of control remaining [%]
1,"C=CC(=O)NCC(=C)c1ccccc1 [2-B09, N-(2-phenylprop-2-en-1-yl)prop-2-enamide]",128.808
2,"N#CC(=Cc1c[nH]c2ccccc12)C(=O)Nc1ccc2c(c1)OCCO2 [9-B07, 2-cyano-N-(2,3-dihydro-1,4-benzodioxin-6-yl)-3-(1H-indol-3-yl)prop-2-enamide]",68.3146
3,"C=CC(=O)N1CCOCC2(CCOCC2)C1 [2-C10, 1-{3,8-dioxa-11-azaspiro[5.6]dodecan-11-yl}prop-2-en-1-one]",136.815
4,"CC(Cl)C(=O)NC1Cc2ccccc2N(C(=O)C(F)(F)F)C1 (stereo not shown) [7-N19, 2-chloro-N-[1-(2,2,2-trifluoroacetyl)-1,2,3,4-tetrahydroquinolin-3-yl]propanamide]",114.286
5,"C=CC(=O)NCC1(n2ccnn2)CC1 [2-L19, N-{[1-(1H-1,2,3-triazol-1-yl)cyclopropyl]methyl}prop-2-enamide]",115.927
6,"CC(Cl)C(=O)N(C)C1CCCc2c1cnn2C (stereo not shown) [6-L16, 2-chloro-N-methyl-N-(1-methyl-4,5,6,7-tetrahydro-1H-indazol-4-yl)propanamide]",98
7,"COc1cc(Cl)c(C)cc1NC(=O)C(C#N)=Cc1c(C)n[nH]c1C [8-K10, N-(4-chloro-2-methoxy-5-methylphenyl)-2-cyano-3-(3,5-dimethyl-1H-pyrazol-4-yl)prop-2-enamide]",88.6307
8,"N#Cc1ccc2c(c1)CCN2C(=O)CCl [5-N09, 1-(2-chloroacetyl)-2,3-dihydro-1H-indole-5-carbonitrile]",100.911
9,"CC(Cl)C(=O)NCc1nnc(C2CCC2)n1C (stereo not shown) [7-A10, 2-chloro-N-[(5-cyclobutyl-4-methyl-4H-1,2,4-triazol-3-yl)methyl]propanamide]",81.3187
10,"C=CC(=O)NC(CO)c1ccnn1C (stereo not shown) [2-D17, N-[2-hydroxy-1-(1-methyl-1H-pyrazol-5-yl)ethyl]prop-2-enamide]",106.876
11,"C=CC(=O)Nc1ccc(C(=O)C(F)F)cc1 [1-M20, N-[4-(2,2-difluoroacetyl)phenyl]prop-2-enamide]",114.286
12,"C=CC(=O)N1CCC(C(=O)Nc2nnc(CC)s2)CC1 [2-M10, N-(5-ethyl-1,3,4-thiadiazol-2-yl)-1-(prop-2-enoyl)piperidine-4-carboxamide]",93.6466
13,"O=C(CCl)Cc1c(F)cccc1F [10-O15, 1-chloro-3-(2,6-difluorophenyl)propan-2-one]",138.438
14,"C=CC(=O)N1CCCC(O)(CC(N)=O)C1 (stereo not shown) [3-K14, 2-[3-hydroxy-1-(prop-2-enoyl)piperidin-3-yl]acetamide]",98.9116
15,"O=S(=O)(c1cc(Cl)cc(Cl)c1)N1CCSSCC1 [10-J09, 5-(3,5-dichlorobenzenesulfonyl)-1,2,5-dithiazepane]",110.313
16,"O=C(Nc1cc(F)ccc1F)N1CCSSCC1 [10-H11, N-(2,5-difluorophenyl)-1,2,5-dithiazepane-5-carboxamide]",89.0625
17,"Cc1ncsc1C=C(C#N)C(=O)NCCc1ccccc1 [9-H06, 2-cyano-3-(4-methyl-1,3-thiazol-5-yl)-N-(2-phenylethyl)prop-2-enamide]",92.5843
18,"N#CC(=Cc1ccc(C#N)cc1)C(=O)Nc1ccccc1Cl [9-O17, N-(2-chlorophenyl)-2-cyano-3-(4-cyanophenyl)prop-2-enamide]",104.569
19,"C=CC(=O)N(Cc1c(C)cccc1OC)C1CCCCNC1=O (stereo not shown) [1-F09, N-[(2-methoxy-6-methylphenyl)methyl]-N-(2-oxoazepan-3-yl)prop-2-enamide]",104.791
20,"Cc1ncc(CNC(=O)C(C)Cl)n1C (stereo not shown) [5-J15, 2-chloro-N-[(1,2-dimethyl-1H-imidazol-5-yl)methyl]propanamide]",97.2678
21,"C=CC(=O)N1CCC(C(=O)NCc2c[nH]cn2)CC1 [2-G10, N-[(1H-imidazol-4-yl)methyl]-1-(prop-2-enoyl)piperidine-4-carboxamide]",85.6397
22,"CC(Cl)C(=O)NCc1cc(C(F)(F)F)cs1 (stereo not shown) [7-J19, 2-chloro-N-{[4-(trifluoromethyl)thiophen-2-yl]methyl}propanamide]",77.865
23,"C=CC(=O)NCc1ccccc1N1CCCC(C(N)=O)C1 (stereo not shown) [3-L21, 1-{2-[(prop-2-enamido)methyl]phenyl}piperidine-3-carboxamide]",104.484

row,SMILES,% of control remaining [%]
1,"C=CC(=O)NC(C)c1nnc(-c2ccccc2F)s1 (stereo not shown) [3-N13, N-{1-[5-(2-fluorophenyl)-1,3,4-thiadiazol-2-yl]ethyl}prop-2-enamide]",108.663
2,"Cc1nc(C)c(S(=O)(=O)N2CCSSCC2)s1 [10-M18, 5-[(2,4-dimethyl-1,3-thiazol-5-yl)sulfonyl]-1,2,5-dithiazepane]",132.813
3,"Cc1coc(C)c1C(=O)CCl [10-M11, 2-chloro-1-(2,4-dimethylfuran-3-yl)ethan-1-one]",117.813
4,"COc1ccc(-n2c(C)c(C)c(C#N)c2NC(=O)CCl)cc1 [4-F20, 2-chloro-N-[3-cyano-1-(4-methoxyphenyl)-4,5-dimethyl-1H-pyrrol-2-yl]acetamide]",125.393
5,"C=CC(=O)N1CCC(C(=O)N2CCC(C(C)(C)O)CC2)CC1 [2-H14, 1-{4-[4-(2-hydroxypropan-2-yl)piperidine-1-carbonyl]piperidin-1-yl}prop-2-en-1-one]",129.504
6,"CCC(C)c1ccccc1NC(=O)C(C)Cl (stereo not shown) [4-O10, N-[2-(butan-2-yl)phenyl]-2-chloropropanamide]",107.099
7,"C=CC(=O)Nc1cc(OC)cc(S(C)(=O)=O)c1 [1-H16, N-(3-methanesulfonyl-5-methoxyphenyl)prop-2-enamide]",109.714
8,"CCCSc1nsc(NC(=O)CCl)n1 [4-G15, 2-chloro-N-[3-(propylsulfanyl)-1,2,4-thiadiazol-5-yl]acetamide]",106.717
9,"Cl.O=C(CCl)Nc1cccnn1 [6-O17, 2-chloro-N-(pyridazin-3-yl)acetamide hydrochloride]",75.4634
10,"O=C1C=CC(=O)N1c1ccccc1Sc1ccccc1 [10-K12, 1-[2-(phenylsulfanyl)phenyl]-2,5-dihydro-1H-pyrrole-2,5-dione]",129.063
11,"CC(Cl)C(=O)N1CCCCCC1c1noc(-c2cnn(C)c2)n1 (stereo not shown) [7-C05, 2-chloro-1-{2-[5-(1-methyl-1H-pyrazol-4-yl)-1,2,4-oxadiazol-3-yl]azepan-1-yl}propan-1-one]",104.553
12,"Cc1ccc(CNC(=O)C(C)Cl)c2ccccc12 (stereo not shown) [7-O10, 2-chloro-N-[(4-methylnaphthalen-1-yl)methyl]propanamide]",96.3893
13,"CC(Cl)C(=O)Nc1nc(-c2cccc([N+](=O)[O-])c2)cs1 (stereo not shown) [4-E08, 2-chloro-N-[4-(3-nitrophenyl)-1,3-thiazol-2-yl]propanamide]",115.102
14,"O=C(CCl)NCC1CC(=O)N(c2ccccc2)C1 (stereo not shown) [5-A09, 2-chloro-N-[(5-oxo-1-phenylpyrrolidin-3-yl)methyl]acetamide]",88.5246
15,"C[C@@H](NC(=O)CCl)c1ccc(F)cc1 [6-G21, 2-chloro-N-[(1R)-1-(4-fluorophenyl)ethyl]acetamide]",93.9024
16,"O=C(CCl)N(Cc1ccccc1)c1ccccc1 [4-G13, N-benzyl-2-chloro-N-phenylacetamide]",77.7513
17,"CCOC(=O)C1=C(C)NC(=O)N(C(=O)CCl)C1c1ccccc1 (stereo not shown) [5-I05, ethyl 3-(2-chloroacetyl)-6-methyl-2-oxo-4-phenyl-1,2,3,4-tetrahydropyrimidine-5-carboxylate]",107.468
18,"O=C(CCl)NC(Cc1ccccc1)C(=O)O (stereo not shown) [6-C13, 2-(2-chloroacetamido)-3-phenylpropanoic acid]",99.7073
19,"C=CC(=O)N[C@H]1CCN(S(=O)(=O)c2ccccc2)C1 [3-P11, N-[(3S)-1-(benzenesulfonyl)pyrrolidin-3-yl]prop-2-enamide]",99.2599
20,"C=CC(=O)N1CCC(C(=O)NCc2nccn2C)(c2ccccc2)CC1 [3-I10, N-[(1-methyl-1H-imidazol-2-yl)methyl]-4-phenyl-1-(prop-2-enoyl)piperidine-4-carboxamide]",94.7323
21,"Cc1cc(C=C(C#N)C(=O)Nc2cn[nH]c2)c(C)n1-c1ccc(F)cc1 [9-N07, 2-cyano-3-[1-(4-fluorophenyl)-2,5-dimethyl-1H-pyrrol-3-yl]-N-(1H-pyrazol-4-yl)prop-2-enamide]",60.2247
22,"C=CC(=O)N1CCC(C(=O)N[C@H]2CCCCCC[C@H]2C(=O)OC)CC1 (racemic) [2-H06, rac-methyl (1R,2S)-2-[1-(prop-2-enoyl)piperidine-4-amido]cyclooctane-1-carboxylate]",77.9809
23,"CC(Cl)C(=O)NCC(=O)N(C)Cc1cccnc1 (stereo not shown) [7-P15, 2-chloro-N-({methyl[(pyridin-3-yl)methyl]carbamoyl}methyl)propanamide]",117.111
